The structures appear in SMILES notation.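 Exposure lasted 48 hours, with cells grown in 96-well plates and compounds tested at five concentrations. At the GI50, growth is halved.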 Certain results were filed several times, with different values. Only these are listed. There may be further records. For some assays here: Values given together repeat one measurement across runs, samples, wells, individuals or studies. What stands in brackets tells the records apart. Letters count within one entry.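 TGI: concentration producing complete growth inhibition.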 For some assays here: A record mostly stands for its own series of concentrations, not given here; some values may only mark the edge of a range.

The record followed here is PubChem BioAssay (NCI).

Among the test systems are SK-MEL-2 melanoma; NCI-H522 lung; DU-145 prostate; CAKI-1 renal; NCI-H23 lung; A498 renal; KM12 colon; SNB-75 CNS; MDA-MB-231 breast; MDA-MB-435; SK-MEL-5 melanoma; OVCAR-3 ovarian; SF-295 CNS; HT29 colon; SF-268 CNS; SR leukemia; CCRF-CEM leukemia.
Holding throughout (test): NCI tumour cell line growth inhibition, 48 h

On to `CCOC(=O)N[C@H]1CCc2cc(OC)c(OC)c(OC)c2-c2ccc(SC)c(=O)cc21`, for which the TGI with SK-MEL-2 melanoma is 8.17 µM [sample A] and > 100 µM [sample B]; in the experiment with NCI-H522 lung, < 10 nM [sample A] and > 100 µM [sample B]; in the experiment on DU-145 prostate it was < 10 nM [sample A] and > 34.9 µM [sample B]; with CAKI-1 renal, 6.49 µM [sample A] and > 100 µM [sample B]; in the experiment on NCI-H23 lung, 1.16 µM [sample A] and > 100 µM [sample B]; in the experiment with A498 renal, 2.45 µM [sample A] and < 19.1 nM [sample B]. The TGI was 258 nM [sample A] and 30.1 µM [sample B] in the experiment with KM12 colon; 9.3 µM [sample A] and > 100 µM [sample B] in the experiment on SNB-75 CNS; > 100 µM [sample A, 1 test] and 7.65 µM [sample B, mean of 2 tests] in the experiment with MDA-MB-231 breast; 12.3 µM [sample A] and < 10 nM [sample B] in the experiment on MDA-MB-435; 271 nM [sample A] and 13.7 nM [sample B] in the experiment on SK-MEL-5 melanoma; 1.56 µM [sample A] and < 19.5 nM [sample B] in the experiment on OVCAR-3 ovarian. Further, the TGI is < 10 nM [sample A] and > 100 µM [sample B] in the experiment with SF-295 CNS; 2.67 µM [sample A] and > 100 µM [sample B] with HT29 colon. For the same compound, the GI50 with MDA-MB-231 breast is > 100 µM [sample A, 1 test] and < 10 nM [sample B, mean of 2 tests].
Take `CNc1cc2c(c3ccccc13)C(CCl)CN2C(=O)c1cc2cc(OC)c(OC)c(OC)c2[nH]1` (stereo not given): the TGI is 3.98 nM and 100 nM in the experiment with DU-145 prostate; 5.62 nM and 1.22 µM with SF-268 CNS; 169 nM and 10.8 nM with MDA-MB-231 breast.
`O=C(Nc1cc(C(F)(F)F)cc(C(F)(F)F)c1)c1cc(Cl)ccc1O`: the TGI in the experiment on SR leukemia was 956 nM [sample A, mean of 2 tests] and > 100 µM [sample B, mean of 2 tests].
Regarding `CCCC(=O)Nc1cn(COC)c(C(=O)N2C[C@@H]3C[C@]34C2=CC(=O)c2[nH]cc(C)c24)n1`, the TGI in the experiment on CCRF-CEM leukemia was 3.59 µM and > 100 µM.
